US20240101716A1 (LA NOVA MEDICINES DEVELOPMENT, published 2024)
Where two headings read alike, the source gives them in different places.

Tests used:
[1] = biological target: T1, human PD-L1 on CHO-K1 cells (human, UniProt Q9NZQ7); assay: cell-based or functional assay
[2] = biological target: T1, human PD-L1 on CHO-K1 cells; assay: cell-based or functional assay; remark: listed apart in the source
[3] = biological target: T2, recombinant human PD-L1 His protein (human, UniProt Q9NZQ7 fragment); assay: SPR Biacore T200, PD-L1 His on chip, HCAb analyte
T2 construct: not shown: His tag
Method: (§1) Affinity constant (Kd) of each sdAb and HCAb was determined by surface plasmon resonance (SPR) on a BIAcore T200 instrument. Briefly, PD-L1 His was amine-coupled to a CMS sensor chip at a density of no higher than 100 RU. […] Flow rate was 30 μl/min in all experiments. Association and dissociation phases were 5 and 10 min, respectively. The chip was regenerated using Glycine/HCl pH 1.5. Binding curves at different concentrations of sdAbs and HCAbs were used to calculate the kinetic parameters kₒₙ, koff and KD.

[4] = biological target: T2, recombinant human PD-L1 His protein; assay: SPR affinity ranking, PD-L1/His as ligand on chip
[5] = biological target: T2, recombinant human PD-L1 His protein; assay: SPR Biacore T200, PD-L1 His on chip, HCAb analyte; remark: listed apart in the source
Method: (§2) Association and dissociation phases were 5 and 10 min, respectively. The chip was regenerated using Glycine/HCl pH 1.5.

[6] = biological target: T2, recombinant human PD-L1 His protein; assay: SPR affinity ranking, PD-L1/His as ligand on chip; remark: listed apart in the source
[7] = biological target: T2, recombinant human PD-L1 His protein; assay: SPR affinity ranking, PD-L1/His as ligand on chip; remark: listed apart in the source
[8] = biological target: T2, recombinant human PD-L1 His protein; assay: SPR affinity ranking, PD-L1/His as ligand on chip; remark: listed apart in the source
[9] = biological target: T2, recombinant human PD-L1 His protein; assay: SPR Biacore T200, PD-L1 His on chip, HCAb analyte; Table 13: first affinity determination of the parent HCAbs
Method: as §1

[10] = biological target: T2, recombinant human PD-L1 His protein; assay: SPR Biacore T200, PD-L1 His on chip, HCAb analyte; Table 21: later run beside the humanized HCAbs; PD-L1 His amine-coupled at no higher than 100 RU
Method: as §2

[11] = biological target: T2, recombinant human PD-L1 His protein; assay: SPR Biacore T200, PD-L1 His on chip, HCAb analyte; kd outside the measurable limits
Method: as §1

[12] = biological target: T2, recombinant human PD-L1 His protein; assay: SPR affinity ranking, PD-L1/His as ligand on chip; remark: listed apart in the source

T2 sequence (Q9NZQ7 19-239 limits assumed): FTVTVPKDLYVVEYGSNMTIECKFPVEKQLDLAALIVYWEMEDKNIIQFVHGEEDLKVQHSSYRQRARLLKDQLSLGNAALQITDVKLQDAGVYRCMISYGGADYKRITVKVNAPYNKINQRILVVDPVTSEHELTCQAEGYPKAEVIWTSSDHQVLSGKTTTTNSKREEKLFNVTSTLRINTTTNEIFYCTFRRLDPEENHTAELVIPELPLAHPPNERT
T1 sequence (Q9NZQ7 19-290): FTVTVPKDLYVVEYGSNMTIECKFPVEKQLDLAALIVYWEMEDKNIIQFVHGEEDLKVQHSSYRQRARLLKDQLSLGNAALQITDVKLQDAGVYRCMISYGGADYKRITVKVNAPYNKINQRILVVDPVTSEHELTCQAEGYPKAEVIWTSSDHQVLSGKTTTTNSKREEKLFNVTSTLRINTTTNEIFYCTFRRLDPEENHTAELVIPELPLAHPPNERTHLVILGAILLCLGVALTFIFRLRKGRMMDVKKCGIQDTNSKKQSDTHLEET

EC50 of PD-L1-based blockade assay (luciferase reporter) [1] [nM]	EC50 of PD-L1-based blockade assay (luciferase reporter) [2] [nM]	Kd [3] [nM]	koff [3] [s⁻¹]	kon [3] [M⁻¹ s⁻¹]	Kd [5] [nM]	koff [5] [s⁻¹]	kon [5] [M⁻¹ s⁻¹]	other results	Binder
9.98	3.6	0.0392	2.81e-05	719000	1.8	0.00036	200000	Kd [4]: 2.21 nM; koff [4]: 0.00033 s⁻¹; kon [4]: 149000 M⁻¹ s⁻¹	AS06750 HCAb (Fc fusion, heavy chain-only antibody: sdAb fused with human Fc region) AVQLVESGGGLVQAGDSLRLSCTASGRTFLTYAVGWFRQAPGTEREFVAGIRWSGGYTDYADSVKGRFTISRDNAKNTVYLQMNSLKPEDTAVYYCAAHRTIATIPEKYEYEYWGQGTQVTVSS[skipping human IgG1 Fc]
6.2	3.86	0.106	5.51e-05	520000	2.1	0.001	480000	Kd [6]: 1.4 nM; koff [6]: 0.00043 s⁻¹	AS06617 HCAb (Fc fusion, heavy chain-only antibody: sdAb fused with human Fc region) DVQLVESGGGLVQAGDSLRLSCAASGRTFISYAVGWFRQAPGSEREFVAGIRWNGIHTDYADSVKGRFTISRDNAKNTVTLEMTSLKPEDTAVYYCAAHRTIATIPEKYEYEYWGQGTQVTVSS[skipping human IgG1 Fc]
5.8	3.08	0.069	3.29e-05	476000	1.4	0.00043	310000	Kd [7]: 1.7 nM; koff [7]: 0.00036 s⁻¹; kon [7]: 210000 M⁻¹ s⁻¹	AS06775 HCAb (Fc fusion, heavy chain-only antibody: sdAb fused with human Fc region; also called AS0775) QVQLVESGGGLVQAGDSLRLSCAASGRTFLTLAVGWFRQAPGTEREFVAGIRWSGSGTDYADSVKGRFTISRDNAKNTVYLQMNSLKPEDTAVYYCAAHTTIATIPEKYEYEYWGRGTQVTVSS[skipping human IgG1 Fc]
6.79	2.15	–	2.44e-05	1.52e+06	–	0.00017	76000	Kd [8]: 1.43 nM; koff [8]: 0.000335 s⁻¹; kon [8]: 234000 M⁻¹ s⁻¹; Kd [9]: 0.0161 nM; Kd [10]: 2.2 nM	AS06730 HCAb (Fc fusion, heavy chain-only antibody: sdAb fused with human Fc region; also called AS0730 HCAb) QVQLVESGGGLVQAGGSLRLSCAASGRTFITYAIGWFRQAPGKEREFVSAINWSGSMTSYADSVKGRFTISRDNAKNTVYLQMNGLKPEDTAVYYCAAHRGAIAPIAQSVYTNWGQGTQVTVSS[skipping human IgG1 Fc]
5.88	–	0.0155	1.98e-05	1.27e+06	–	–	–	–	AS06628 HCAb (Fc fusion, heavy chain-only antibody: sdAb fused with human Fc region) QVQLVESGGGLVQAGGSLRLSCAASGRTFITYAIGWFRQAPGKEREFVTAINWSGSMTSYADSVKGRFTISRDNNKNMVYLQMNSLKPEDTAVYYCAAHRGAIAPMTQSVYDYWGQGTQVTVSS[skipping human IgG1 Fc]
5.59	–	–	–	555000	–	–	–	Kd [11]: < 0.018 nM; koff [11]: < 1e-05 s⁻¹	AS06703 HCAb (Fc fusion, heavy chain-only antibody: sdAb fused with human Fc region) EVQLVESGGGLVRAGGSLRLSCAASGRTFITYAIGWFRQAPGKEREFVTAINWSGSMTSYADSVKGRFTISRDNNKNTVYLQMNSLKPEDTALYYCAAHLGAIAPMSQSVYDYWGQGTQVTVSS[skipping human IgG1 Fc]
5.82	–	0.0683	5.33e-05	781000	–	–	–	–	AS06791 HCAb (Fc fusion, heavy chain-only antibody: sdAb fused with human Fc region) QVQLVESGGGLVQAGGSLRLSCAASGRTFITYAIGWFRQAPGKEREFVTAINWSGSMTSYADSVKGRFTISRDNAKNTVYLQINGLKSEDTAVYYCAAHRGAIAPMTQSVYDYWGQGTQVTVSS[skipping human IgG1 Fc]
7.37	–	0.156	0.000153	979000	–	–	–	–	AS06686 HCAb (Fc fusion, heavy chain-only antibody: sdAb fused with human Fc region) AVQLVESGGGLVQAGDSLRLACAASGRTFLTYALGWFRQAPGKEREFVAGVSWSGSSTKYADSVKGRFTISRDNAKNTVYMQMNSLKPEDTAVYYCAAQISAIVPISAHEYQYWGQGTQVTVSS[skipping human IgG1 Fc]
5.54	–	–	–	553000	–	–	–	Kd [11]: < 0.0181 nM; koff [11]: < 1e-05 s⁻¹	AS06778 HCAb (Fc fusion, heavy chain-only antibody: sdAb fused with human Fc region) QVQLVESGGGLVQAGGSLKLSCAASGRTFITYAMGWFRQAPGKERELVAAISWSGSSTYSADSVKGRFTISRDNAKNTVYLQMNSLKPEDTAVYYCAAEVSARTGEHLPKLMGDYWGQGTQVTVSS[skipping human IgG1 Fc]
7.55	–	0.31	0.000226	730000	–	–	–	–	AS11947 HCAb (Fc fusion, heavy chain-only antibody: sdAb fused with human Fc region) DVQLVESGGGLVQAGDSLRLTCSASGRTFISYAVGWFRQAPGTEREFVAGIRWNGISTDYTDSVKGRFTISRDNAKNTVYLQMNSLKPEDTAIYYCAAHRTIATIPNKYEYDHWGQGTQVTVSS[skipping human IgG1 Fc]
5.8	5	0.108	8.25e-05	761000	1.8	0.00062	350000	Kd [12]: 1.96 nM; koff [12]: 0.000582 s⁻¹; kon [12]: 297000 M⁻¹ s⁻¹	AS11948 HCAb (Fc fusion, heavy chain-only antibody: sdAb fused with human Fc region) EVQLVESGGGLVQAGDSLRLSCVASGRTFVTYGMGWFRQAPGKEREFVAAINWSGSMTSYGDSVKGRFAISRDNAKNTVYLQMNSLKPEDTAVYYCAAALGAVVYTTREPYTYWGRGTQVTVSS[skipping human IgG1 Fc]
–	4.28	–	–	–	2.7	0.0012	430000	Kd [6]: 2.7 nM; koff [6]: 0.0012 s⁻¹; kon [6]: 430000 M⁻¹ s⁻¹	AS06617VH11 HCAb (Fc fusion, humanized HCAb: sdAb fused with human Fc region) EVQLVESGGGLVQPGGSLRLSCAASGRTFISYAVGWFRQAPGKGREFVSGIRWSGIHTDYADSVKGRFTISRDNAKNTLYLQMNSLRPEDTAVYYCAAHRTIATIPEKYEYEYWGQGTLVTVSS[skipping human IgG1 Fc]
–	5.26	–	–	–	1.6	0.0005	320000	Kd [7]: 1.6 nM; koff [7]: 0.0005 s⁻¹; kon [7]: 320000 M⁻¹ s⁻¹	AS06775VH11 HCAb (Fc fusion, humanized HCAb) EVQLVESGGGLVQPGGSLRLSCAASGRTFLTLAVGWFRQAPGKGREFVSGIRWSGSGTDYADSVKGRFTISRDNAKNTLYLQMNSLRPEDTAVYYCAAHTTIATIPEKYEYEYWGQGTLVTVSS[skipping human IgG1 Fc]
–	3.43	–	–	–	1.7	0.00036	210000	Kd [7]: 2.92 nM; koff [7]: 0.000716 s⁻¹; kon [7]: 246000 M⁻¹ s⁻¹	AS06775VH4 HCAb (Fc fusion, humanized HCAb) EVQLVESGGGLVQPGGSLRLSCAASGRTFLTYAVGWFRQAPGKGLEFVSGIRWSGGYTDYADSVKGRFTISRDNSKNTLYLQMNSLRAEDTAVYYCAAHRTIATIPEKYEYEYWGQGTLVTVSS[skipping human IgG1 Fc]
